Some of the results follow.
Tests used:
Experiment in all cases: glycan array binding signal (z-score within array); higher = stronger binding
Settings in all cases: glycan notation: IUPAC condensed, linker removed
[1] = target: GlcNAc(b1-4)GlcNAc(b1-4)GlcNAc(b1-4)GlcNAc(b1-4)GlcNAc(b1-4)GlcNAc
Method in brief: (§1)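 Columns mapping to the same glycan were averaged after glycan names were converted to IUPAC-condensed notation. The data come from 3228 arrays in the Consortium for Functional Glycomics database, limited to those with an available protein sequence. Binding is reported as a within-array Z-score averaged across arrays of one protein sequence and across linkers.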

[2] = target: GlcNAc(b1-4)[GlcNAc(b1-6)]GalNAc
Method in brief: as §1

[3] = target: GlcNAc(b1-6)Gal(b1-4)GlcNAc
Method in brief: as §1

GlcNAc(b1-6)GalNAc = target: GlcNAc(b1-6)GalNAc
Method in brief: as §1

[4] = target: GlcNAc6S(b1-3)Gal(b1-4)GlcNAc
Method in brief: as §1

Kdn(a2-3)Gal(b1-3)GalNAc = target: Kdn(a2-3)Gal(b1-3)GalNAc
Method in brief: as §1

Kdn(a2-3)Gal(b1-3)GlcNAc = target: Kdn(a2-3)Gal(b1-3)GlcNAc
Method in brief: as §1

Kdn(a2-3)Gal(b1-4)Glc = target: Kdn(a2-3)Gal(b1-4)Glc
Method in brief: as §1

Kdn(a2-3)Gal(b1-4)GlcNAc = target: Kdn(a2-3)Gal(b1-4)GlcNAc
Method in brief: as §1

[5] = target: Kdn(a2-3)Gal(b1-4)[Fuc(a1-3)]GlcNAc
Method in brief: as §1

Kdn(a2-6)Gal(b1-4)GlcNAc = target: Kdn(a2-6)Gal(b1-4)GlcNAc
Method in brief: as §1

[6] = target: Man(a1-2)Man(a1-2)Man(a1-3)Man
Method in brief: as §1

[7] = target: Man(a1-2)Man(a1-2)Man(a1-6)[Man(a1-3)]Man
Method in brief: as §1

Man(a1-2)Man(a1-3)Man = target: Man(a1-2)Man(a1-3)Man
Method in brief: as §1

[8] = target: Man(a1-2)Man(a1-3)[Man(a1-2)Man(a1-6)]Man
Method in brief: as §1

[9] = target: Man(a1-2)Man(a1-3)[Man(a1-2)Man(a1-6)]Man(a1-6)[Man(a1-2)Man(a1-2)Man(a1-3)]Man
Method in brief: as §1

[10] = target: Man(a1-2)Man(a1-3)[Man(a1-2)Man(a1-6)]Man(a1-6)[Man(a1-2)Man(a1-2)Man(a1-3)]Man(b1-4)GlcNAc(b1-4)GlcNAc
Method in brief: as §1

[11] = target: Man(a1-2)Man(a1-3)[Man(a1-6)]Man(a1-6)[Man(a1-2)Man(a1-3)]Man(b1-4)GlcNAc(b1-4)GlcNAc
Method in brief: as §1

[12] = target: Man(a1-2)Man(a1-6)[Man(a1-3)]Man(a1-6)[Man(a1-2)Man(a1-2)Man(a1-3)]Man
Method in brief: as §1

[13] = target: Man(a1-2)Man(a1-6)[Man(a1-3)]Man(a1-6)[Man(a1-2)Man(a1-2)Man(a1-3)]Man(b1-4)GlcNAc(b1-4)GlcNAc
Method in brief: as §1

Man(a1-3)[Man(a1-6)]Man = target: Man(a1-3)[Man(a1-6)]Man
Method in brief: as §1

[14] = target: Man(a1-3)[Man(a1-6)]Man(a1-6)[Man(a1-2)Man(a1-3)]Man(b1-4)GlcNAc(b1-4)GlcNAc
Method in brief: as §1

[15] = target: Man(a1-3)[Man(a1-6)]Man(a1-6)[Man(a1-3)]Man
Method in brief: as §1

[16] = target: Man(a1-3)[Man(a1-6)]Man(a1-6)[Man(a1-3)]Man(b1-4)GlcNAc(b1-4)GlcNAc
Method in brief: as §1

[17] = target: Man(a1-3)[Man(a1-6)]Man(b1-4)GlcNAc(b1-4)GlcNAc
Method in brief: as §1

[18] = target: Man(a1-3)[Man(a1-6)]Man(b1-4)GlcNAc(b1-4)[Fuc(a1-6)]GlcNAc
Method in brief: as §1

Man(a1-6)Man = target: Man(a1-6)Man
Method in brief: as §1

Man(b1-4)GlcNAc = target: Man(b1-4)GlcNAc
Method in brief: as §1

MurNAc(b1-4)GlcNAc = target: MurNAc(b1-4)GlcNAc
Method in brief: as §1

Neu5Ac(a2-3)Gal = target: Neu5Ac(a2-3)Gal
Method in brief: as §1

[19] = target: Neu5Ac(a2-3)Gal(b1-3)GalNAc
Method in brief: as §1

[20] = target: Neu5Ac(a2-3)Gal(b1-3)GalNAc(b1-3)Gal(a1-4)Gal(b1-4)Glc
Method in brief: as §1

[21] = target: Neu5Ac(a2-3)Gal(b1-3)GalNAc(b1-4)[Neu5Ac(a2-3)]Gal(b1-4)Glc
Method in brief: as §1

[22] = target: Neu5Ac(a2-3)Gal(b1-3)GalNAc(b1-4)[Neu5Ac(a2-8)Neu5Ac(a2-3)]Gal(b1-4)Glc
Method in brief: as §1

[23] = target: Neu5Ac(a2-3)Gal(b1-3)GalNAc6S
Method in brief: as §1

[24] = target: Neu5Ac(a2-3)Gal(b1-3)GlcNAc
Method in brief: as §1

[25] = target: Neu5Ac(a2-3)Gal(b1-3)GlcNAc(b1-2)Man
Method in brief: as §1

[26] = target: Neu5Ac(a2-3)Gal(b1-3)GlcNAc(b1-2)Man(a1-3)[GlcNAc(b1-4)][Neu5Ac(a2-3)Gal(b1-3)GlcNAc(b1-2)Man(a1-6)]Man(b1-4)GlcNAc(b1-4)GlcNAc
Method in brief: as §1

[27] = target: Neu5Ac(a2-3)Gal(b1-3)GlcNAc(b1-2)Man(a1-3)[Neu5Ac(a2-3)Gal(b1-3)GlcNAc(b1-2)Man(a1-6)]Man(b1-4)GlcNAc(b1-4)GlcNAc
Method in brief: as §1

[28] = target: Neu5Ac(a2-3)Gal(b1-3)GlcNAc(b1-3)Gal(b1-3)GlcNAc
Method in brief: as §1

[29] = target: Neu5Ac(a2-3)Gal(b1-3)GlcNAc(b1-3)Gal(b1-4)GlcNAc
Method in brief: as §1

[30] = target: Neu5Ac(a2-3)Gal(b1-3)GlcNAc(b1-3)GalNAc
Method in brief: as §1

[31] = target: Neu5Ac(a2-3)Gal(b1-3)GlcNAc(b1-4)Gal(b1-4)Glc
Method in brief: as §1

[32] = target: Neu5Ac(a2-3)Gal(b1-3)GlcNAc(b1-6)GalNAc
Method in brief: as §1

[33] = target: Neu5Ac(a2-3)Gal(b1-3)GlcNAc6S
Method in brief: as §1

B1: SBD-G4S3-SBD (protein)
chain: MASIPSSASVQLDSYNYDGSTFSGKIYVKNIAYSKKVTVVYADGSDNWNNNGNIIAASFSGPISGSNYEYWTFSASVKGIKEFYIKYEVSGKTYYDNNNSANYQVSTGGGGSGGGGSGGGGSEFASIPSSASVQLDSYNYDGSTFSGKIYVKNIAYSKKVTVVYADGSDNWNNNGNIIAASFSGPISGSNYEYWTFSASVKGIKEFYIKYEVSGKTYYDNNNSANYQVST
[1]
  glycan array binding signal (z-score): -0.364
[2]
  glycan array binding signal (z-score): -0.397
[3]
  glycan array binding signal (z-score): -0.409
GlcNAc(b1-6)GalNAc
  glycan array binding signal (z-score): -0.075
[4]
  glycan array binding signal (z-score): -0.111
Kdn(a2-3)Gal(b1-3)GalNAc
  glycan array binding signal (z-score): -0.316
Kdn(a2-3)Gal(b1-3)GlcNAc
  glycan array binding signal (z-score): -0.41
Kdn(a2-3)Gal(b1-4)Glc
  glycan array binding signal (z-score): -0.276
Kdn(a2-3)Gal(b1-4)GlcNAc
  glycan array binding signal (z-score): -0.416
[5]
  glycan array binding signal (z-score): -0.296
Kdn(a2-6)Gal(b1-4)GlcNAc
  glycan array binding signal (z-score): -0.365
[6]
  glycan array binding signal (z-score): -0.248
[7]
  glycan array binding signal (z-score): -0.367
Man(a1-2)Man(a1-3)Man
  glycan array binding signal (z-score): -0.402
[8]
  glycan array binding signal (z-score): -0.315
[9]
  glycan array binding signal (z-score): -0.42
[10]
  glycan array binding signal (z-score): -0.217
[11]
  glycan array binding signal (z-score): -0.247
[12]
  glycan array binding signal (z-score): -0.369
[13]
  glycan array binding signal (z-score): -0.374
Man(a1-3)[Man(a1-6)]Man
  glycan array binding signal (z-score): -0.355
[14]
  glycan array binding signal (z-score): -0.04
[15]
  glycan array binding signal (z-score): -0.125
[16]
  glycan array binding signal (z-score): -0.351
[17]
  glycan array binding signal (z-score): -0.371
[18]
  glycan array binding signal (z-score): -0.323
Man(a1-6)Man
  glycan array binding signal (z-score): 0.697
Man(b1-4)GlcNAc
  glycan array binding signal (z-score): -0.315
MurNAc(b1-4)GlcNAc
  glycan array binding signal (z-score): -0.374
Neu5Ac(a2-3)Gal
  glycan array binding signal (z-score): -0.394
[19]
  glycan array binding signal (z-score): -0.369
[20]
  glycan array binding signal (z-score): -0.32
[21]
  glycan array binding signal (z-score): -0.403
[22]
  glycan array binding signal (z-score): -0.376
[23]
  glycan array binding signal (z-score): -0.397
[24]
  glycan array binding signal (z-score): -0.372
[25]
  glycan array binding signal (z-score): -0.183
[26]
  glycan array binding signal (z-score): -0.25
[27]
  glycan array binding signal (z-score): -0.305
[28]
  glycan array binding signal (z-score): -0.395
[29]
  glycan array binding signal (z-score): -0.377
[30]
  glycan array binding signal (z-score): -0.432
[31]
  glycan array binding signal (z-score): -0.389
[32]
  glycan array binding signal (z-score): -0.379
[33]
  glycan array binding signal (z-score): -0.296

Source: the supplement of paper PMC8728848
